# Source: patent US20220340685A1, “COMBINATION THERAPY WITH ENTPD2 AND CD73 ANTIBODIES” (Novartis AG, priority 2019, published 2022)
# T1: human ENTPD2 (Homo sapiens, UniProt Q9Y5L3)
# T1 construct: residues 29-462 of human or cyno ENTPD2; GP67 signal peptide (N); made in house; host or cells: High Five (Trichoplusia ni) insect cells, baculovirus
# T1 sequence (Q9Y5L3 29-462): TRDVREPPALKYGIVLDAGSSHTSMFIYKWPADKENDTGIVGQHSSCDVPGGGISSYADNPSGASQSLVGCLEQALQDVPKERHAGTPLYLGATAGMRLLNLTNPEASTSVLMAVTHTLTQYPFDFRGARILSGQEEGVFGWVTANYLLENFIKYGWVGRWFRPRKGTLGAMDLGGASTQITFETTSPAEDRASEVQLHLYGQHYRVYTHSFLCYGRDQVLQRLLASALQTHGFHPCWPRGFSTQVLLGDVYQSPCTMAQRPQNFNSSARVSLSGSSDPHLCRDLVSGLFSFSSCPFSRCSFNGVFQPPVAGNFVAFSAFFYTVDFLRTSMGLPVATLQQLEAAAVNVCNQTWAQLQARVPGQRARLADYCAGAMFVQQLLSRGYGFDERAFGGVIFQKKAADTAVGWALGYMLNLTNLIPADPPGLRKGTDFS
# T2: mouse ENTPD2 (Mus musculus, UniProt O55026)
# T2 construct: residues 29-462 of mouse or rat ENTPD2 (the extracellular domain); His6; mouse IgK signal peptide (N); made in house; host or cells: FreeStyle 293-F cells (transient)
# T2 sequence (O55026 29-462): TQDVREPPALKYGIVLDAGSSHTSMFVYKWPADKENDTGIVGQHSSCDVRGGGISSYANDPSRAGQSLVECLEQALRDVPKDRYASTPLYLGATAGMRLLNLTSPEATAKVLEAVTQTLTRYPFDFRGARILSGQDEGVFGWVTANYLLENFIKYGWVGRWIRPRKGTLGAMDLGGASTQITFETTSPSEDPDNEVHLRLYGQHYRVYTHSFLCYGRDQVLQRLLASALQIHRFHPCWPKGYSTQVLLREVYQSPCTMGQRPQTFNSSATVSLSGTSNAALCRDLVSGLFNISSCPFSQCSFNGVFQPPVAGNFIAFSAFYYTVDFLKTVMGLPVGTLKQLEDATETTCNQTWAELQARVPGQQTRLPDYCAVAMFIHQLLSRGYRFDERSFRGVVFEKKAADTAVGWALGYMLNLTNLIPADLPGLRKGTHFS
# T3: Human ENTPD1 (NP_001767) expressing NIH/3T3 cells (Homo sapiens, UniProt P49961)
# T3 construct: expressed in transfected cells; host or cells: NIH/3T3 (retroviral transduction, FACS-sorted)
# T3 sequence (P49961 1-510): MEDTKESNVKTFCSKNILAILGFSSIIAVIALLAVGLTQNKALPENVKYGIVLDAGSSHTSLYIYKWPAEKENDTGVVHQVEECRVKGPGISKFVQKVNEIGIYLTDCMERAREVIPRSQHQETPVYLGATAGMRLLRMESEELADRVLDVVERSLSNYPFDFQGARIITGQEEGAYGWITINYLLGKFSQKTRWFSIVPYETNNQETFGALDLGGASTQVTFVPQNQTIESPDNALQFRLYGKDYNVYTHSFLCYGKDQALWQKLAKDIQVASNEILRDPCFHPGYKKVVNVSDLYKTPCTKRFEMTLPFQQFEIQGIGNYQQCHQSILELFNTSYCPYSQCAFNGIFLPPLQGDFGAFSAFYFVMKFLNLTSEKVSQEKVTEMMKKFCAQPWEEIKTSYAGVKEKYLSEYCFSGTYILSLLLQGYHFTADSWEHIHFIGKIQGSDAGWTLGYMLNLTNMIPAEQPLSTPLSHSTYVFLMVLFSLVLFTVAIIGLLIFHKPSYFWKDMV
# What was measured:
# human ENTPD2 = target: T1, human ENTPD2; experiment: Biacore SPR kinetic affinity to human ENTPD2 ECD; type: binding; settings: 25° C.; for Human ENTPD2 ka: association rate; for Human ENTPD2 kd: dissociation rate
# Protocol: (§1) Biacore Screening: Affinity was measured by determining the kinetic rate constants using surface plasmon resonance (SPR) on a Biacore T200 or T100 with the T200 sensitivity upgrade instrument (Biacore, GE Healthcare). Antibodies were captured on CM5 sensor chips (Biacore, GE Healthcare) prepared with a mouse anti-human IgG Fc antibody (ThermoFisher catalogue # 05-4200) amine coupled to the surface. […] ENTPD2 analytes were allowed to associate for 180 s and dissociate for up to 1800 s depending on the off-rate of the antibody at a flow rate of 30 μL/min. The running buffer was PBS pH 7.2 (prepared from a Corning 10X stock, cat# 46-013-CM) +0.05% Tween 20. Regeneration was accomplished with 30 s injections of 3 or 4 M MgCl2 to remove all the captured antibody and remaining complex from the surface, after which fresh antibody was captured. The raw data were analyzed using Biacore T200 Evaluation Software version 1.0 and fit to a 1:1 binding model, with all parameters set to fit globally except for RI, which was set to fit locally.
# [1] = system: cynomologus (cyno) ENTPD2; experiment: Biacore SPR kinetic affinity to cyno ENTPD2 ECD; type: binding, cynomolgus monkey; settings: 25° C.; for Cyno ENTPD2 ka: association rate; for Cyno ENTPD2 kd: dissociation rate
# Protocol: as §1
# mouse ENTPD2 = target: T2, mouse ENTPD2; experiment: Antibody specificity: binding to mouse ENTPD2; settings: Biacore SPR, mouse ENTPD2
# Protocol: ELISA screening on directly coated antigen: Maxisorp™ 384-well plates (Thermo Nunc) were coated with 2 μg/ml of recombinant ENTPD2 diluted in PBS. After blocking with 2% BSA (bovine serum albumin) in PBS for 1 hr at room temperature, washing plates 3× with TBST (0.05% Tween 20 in TBS, Sigma Cat# T9039), primary antibodies in TBST and 2% BSA were added in a serial dilution and incubated for 1 hr at room temperature. Plates were washed again and bound antibodies were detected by incubation with anti-hFc gamma conjugated to horseradish peroxidase (HRP; Jackson ImmunoResearch, Cat#115-035-098, diluted 1:5000 in 1× TBST+2% BSA) for 1 hr at room temperature followed by washing with TBST and afterwards addition of SureBlue Peroxidase substrate (KPL, #52-00-03) substrate. After 15 min, absorbance at 650 nm was recorded and analyzed in GraphPad Prism6.
# as §1
# Antibody specificity for mAb1-mAb10 was confirmed. […] Antibodies mAb8, mAb9, and mAb10 show weak affinity to mouse ENTPD2. None of the selected antibodies bind to rat ENTPD2.
# [2] = target: T3, Human ENTPD1 (NP_001767) expressing NIH/3T3 cells; experiment: Cross reactivity: FACS binding to human ENTPD1 expressing NIH/3T3 cells; settings: 50 nM antibody
# Protocol: (§2) FACS screening: Specific binding of candidate antibodies to endogenously expressed ENTPD2 was assessed by flow cytometry. Cells were rinsed thoroughly with 1× PBS and treated with Accutase (Millipore #SCR005) to lift from growth plates and resuspended at approximately 1×10^5 cells/90 μL in 1× FACS buffer (2% FBS +0.1% NaN3 in PBS). In a 96-well U-bottom plate, 10 μL of 10× antibody solution in FACS buffer was pre-seeded and 90 μL of cell suspension was added. Cell were incubated for 30 minutes at 4° C., washed 1× with cold PBS and resuspended in 100 μL of 1:500 secondary antibody 1× FACS buffer (Allophycocyanin conjugated F(ab′)2 goat anti-human IgG, Fcγ specific; Jackson Immunoresearch, Cat# 109-136-098). After additional incubation for 15 min at 4° C., cells were washed twice with PBS and resuspended in 100 μL of 1× FACS buffer with 4 μg/mL propidium iodide (Life Technologies, Cat# P3566). Geometric mean fluorescence intensity was calculated on live single cells using FlowJo software.
# (§3) Cross reactivity Human ENTPD1 (NP_001767) expressing NIH/3T3 cells were generated using a retroviral transduction approach. 72hrs post transduction, engineered cells were stained with the anti-Human CD39/ENTPD1 APC-conjugated Antibody (R&D systems, Minneapolis, Minn.) and live cells that expressed human ENTPD1 were separated from the rest of the population via fluorescence activated cell sorting. Stable expression of ENTPD1 was periodically re-confirmed by FACS with the above described anti-Human CD39/ENTPD1 APC-conjugated Antibody (1:100).
# H520 cells = experiment: Cross reactivity: FACS binding to H520 cells (ENTPD3 and ENTPD8 expression); design: species or system human; settings: 50 nM antibody
# Protocol: as §2
# H520 cells were identified as a cancer cell line with ENTPD3 (Ct 25) and ENTPD8 (Ct 26) expression by Taqman and were used for selectivity screening.
# NIH/3T3 cells = experiment: Cross reactivity: FACS binding to parental NIH/3T3 control cells; settings: 50 nM antibody
# Protocol: as §2, §3
Human ENTPD2 ka (human ENTPD2),Human ENTPD2 kd (human ENTPD2),Cyno ENTPD2 kd [1],Mouse ENTPD2 BIACore KD (nM) (mouse ENTPD2),"Apparent FACS binding at 50 nM, NIH/3T3 - ENTPD1 [2]",Molecule,Cyno ENTPD2 ka [1],"Apparent FACS binding at 50 nM, H520 Cells (H520 cells)","Apparent FACS binding at 50 nM, NIH/3T3 cells (NIH/3T3 cells)"
130000 M⁻¹ s⁻¹,0.00016 s⁻¹,0.00098 s⁻¹,No binding,–,"mAb3: humanized anti-human ENTPD2 antibody derived from mAb17; probably heavy chain SEQ ID NO: 35, light chain SEQ ID NO: 31 (antibody) heavy: QVQLVQSGAEVVKPGASVKISCKASGYTFTDYNMDWVKQAPGQRLEWIGDINPKYDISTYNQQFKGKATITVDTSASTAYMELSSLRSEDTAVYYCARRGFFLYYGINYYYFDVWGQGTLVTVSSASTKGPSVFPLAPSSKSTSGGTAALGCLVKDYFPEPVTVSWNSGALTSGVHTFPAVLQSSGLYSLSSVVTVPSSSLGTQTYICNVNHKPSNTKVDKRV[left out - human IgG1 Fc] light: EIVLTQSPATLSASPGERITLSCSASSSVSYIHWYQQKPGQAPRLLIYSTSNLASGIPARFSGSGSGTFYTLTISSVEPEDAAVYYCHQWSSYPWTFGGGTKLEIKRTVAAPSVFIFPPSDEQLKSGTASVVCLLNNFYPREAKVQWKVDNALQSGNSQESVTEQDSKDSTYSLSSTLTLSKADYEKHKVYACEVTHQGLSSPVTKSFNRGEC",450000 M⁻¹ s⁻¹,–,–
210000 M⁻¹ s⁻¹,0.00019 s⁻¹,0.0012 s⁻¹,No binding,–,"mAb7: humanized anti-human ENTPD2 antibody derived from mAb17; probably heavy chain SEQ ID NO: 27, light chain SEQ ID NO: 80 (antibody) heavy: QVQLVQSGAEVVKPGASVKISCKASGYTFTDYNMDWVKQAPGQRLEWIGDINPKYDISTYNQQFKGKATITVDKSASTAYMELSSLRSEDTAVYYCARRGFFLYYGINYYYFDVWGQGTLVTVSSASTKGPSVFPLAPSSKSTSGGTAALGCLVKDYFPEPVTVSWNSGALTSGVHTFPAVLQSSGLYSLSSVVTVPSSSLGTQTYICNVNHKPSNTKVDKRV[left out - human IgG1 Fc] light: EIVLTQSPATLSASPGEEITLSCSASSSVSYIHWYQQKPGQAPRLLIYSTSNLASGIPARFSGSGSGTFYTLTISSVEPEDAAVYYCHQWSSYPWTFGGGTKLEIKRTVAAPSVFIFPPSDEQLKSGTASVVCLLNNFYPREAKVQWKVDNALQSGNSQESVTEQDSKDSTYSLSSTLTLSKADYEKHKVYACEVTHQGLSSPVTKSFNRGEC",1.2e+06 M⁻¹ s⁻¹,–,–

# Further lines, the molecule ahead of its results:
Molecule,Human ENTPD2 ka (human ENTPD2),Human ENTPD2 kd (human ENTPD2),Cyno ENTPD2 kd [1],Mouse ENTPD2 BIACore KD (nM) (mouse ENTPD2),"Apparent FACS binding at 50 nM, NIH/3T3 - ENTPD1 [2]",Cyno ENTPD2 ka [1],"Apparent FACS binding at 50 nM, H520 Cells (H520 cells)","Apparent FACS binding at 50 nM, NIH/3T3 cells (NIH/3T3 cells)"
"mAb2: humanized anti-human ENTPD2 antibody derived from mAb17; probably heavy chain SEQ ID NO: 27, light chain SEQ ID NO: 31 (antibody) heavy: QVQLVQSGAEVVKPGASVKISCKASGYTFTDYNMDWVKQAPGQRLEWIGDINPKYDISTYNQQFKGKATITVDKSASTAYMELSSLRSEDTAVYYCARRGFFLYYGINYYYFDVWGQGTLVTVSSASTKGPSVFPLAPSSKSTSGGTAALGCLVKDYFPEPVTVSWNSGALTSGVHTFPAVLQSSGLYSLSSVVTVPSSSLGTQTYICNVNHKPSNTKVDKRV[left out - human IgG1 Fc] light: EIVLTQSPATLSASPGERITLSCSASSSVSYIHWYQQKPGQAPRLLIYSTSNLASGIPARFSGSGSGTFYTLTISSVEPEDAAVYYCHQWSSYPWTFGGGTKLEIKRTVAAPSVFIFPPSDEQLKSGTASVVCLLNNFYPREAKVQWKVDNALQSGNSQESVTEQDSKDSTYSLSSTLTLSKADYEKHKVYACEVTHQGLSSPVTKSFNRGEC",110000 M⁻¹ s⁻¹,0.00018 s⁻¹,0.0012 s⁻¹,No binding,–,430000 M⁻¹ s⁻¹,–,–
ANTI-HUMAN ENTPD2 MAB3 (antibody) heavy: QVQLVQSGAEVVKPGASVKISCKASGYTFTDYNMDWVKQAPGQRLEWIGDINPKYDISTYNQQFKGKATITVDTSASTAYMELSSLRSEDTAVYYCARRGFFLYYGINYYYFDVWGQGTLVTVSSASTKGPSVFPLAPSSKSTSGGTAALGCLVKDYFPEPVTVSWNSGALTSGVHTFPAVLQSSGLYSLSSVVTVPSSSLGTQTYICNVNHKPSNTKVDKRV[left out - human IgG1 Fc] light: EIVLTQSPATLSASPGERITLSCSASSSVSYIHWYQQKPGQAPRLLIYSTSNLASGIPARFSGSGSGTFYTLTISSVEPEDAAVYYCHQWSSYPWTFGGGTKLEIKRTVAAPSVFIFPPSDEQLKSGTASVVCLLNNFYPREAKVQWKVDNALQSGNSQESVTEQDSKDSTYSLSSTLTLSKADYEKHKVYACEVTHQGLSSPVTKSFNRGEC,–,–,–,–,No binding,–,No binding,No binding
